Measurements published in patent US11365205B2 (Aurigene Discovery Technologies Limited, priority 2018, dated 2022).

Biological target: PRMT5/MEP50 Complex (Homo sapiens (Human), UniProt O14744)
Assay: PRMT5 inhibition based on TR-FRET assay
Type: biochemical
Conditions: 32 nM PRMT5:MEP50, 50 nM Histone-H4 peptide, 1 μM SAM
Source text: PRMT5 Inhibition Based on TR-FRET Assay:
Protein arginine methyltransferase 5 (PRMT5) is a type II arginine methyltransferase that catalyze mono- and symmetric demethylation on arginine residues of histone or non-histone proteins in presence of S-adenosylmethionine (AdoMet or SAM) a cofactor responsible for donating the methyl group. PRMT5 is reported to be overexpressed in several human cancers. To identify compounds that inhibit the PRMT5 and decrease its activity, a TR-FRET based assay has been established. Time-resolved fluorescence resonance energy transfer (TR-FRET) HTS assays are homogeneous proximity assays where the interaction of two dye-labeled binding partners is detected by the energy transfer between a donor and an acceptor dye and the subsequent light emission by the acceptor dye. PRMT5 catalyzes Histone H4 peptide which is biotin tagged to the Lysine amino acid at carboxyl end, in presence of S-adenosyl-1-methionine (SAM) to methylate the peptide. The antibody specific to mono methylated H4 peptide (H4R3) with Ig conjugate binds to the methylated peptide, indirectly binding to the Europium lanthanide. […]
The compound dilutions were prepared as 7.5% DMSO stock solutions in assay buffer. […] The plates were then read on Victor-3 with Excitation at 340 nm and Emissions collected at 615 and 665 nm in TR-FRET protocol. […]

Chain of UniProt O14744 (O14744 whole entry): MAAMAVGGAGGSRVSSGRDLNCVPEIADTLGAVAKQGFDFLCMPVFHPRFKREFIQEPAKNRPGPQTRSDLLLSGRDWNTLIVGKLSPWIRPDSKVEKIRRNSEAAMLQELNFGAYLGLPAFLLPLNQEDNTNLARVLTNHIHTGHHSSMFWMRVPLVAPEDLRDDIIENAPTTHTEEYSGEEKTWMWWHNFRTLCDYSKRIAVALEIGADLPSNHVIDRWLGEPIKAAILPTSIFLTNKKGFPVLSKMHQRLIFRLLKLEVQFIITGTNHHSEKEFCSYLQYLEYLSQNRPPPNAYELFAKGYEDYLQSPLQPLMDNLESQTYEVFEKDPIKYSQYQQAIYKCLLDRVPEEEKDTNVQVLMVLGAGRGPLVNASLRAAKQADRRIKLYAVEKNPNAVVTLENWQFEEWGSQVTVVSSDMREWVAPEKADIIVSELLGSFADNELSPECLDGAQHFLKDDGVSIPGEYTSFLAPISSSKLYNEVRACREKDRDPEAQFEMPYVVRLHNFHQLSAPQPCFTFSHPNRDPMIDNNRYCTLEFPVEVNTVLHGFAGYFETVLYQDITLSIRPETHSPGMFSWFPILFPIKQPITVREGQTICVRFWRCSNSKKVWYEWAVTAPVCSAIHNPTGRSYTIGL
Chain of UniProt O14744 (Q9BQA1 whole entry partner): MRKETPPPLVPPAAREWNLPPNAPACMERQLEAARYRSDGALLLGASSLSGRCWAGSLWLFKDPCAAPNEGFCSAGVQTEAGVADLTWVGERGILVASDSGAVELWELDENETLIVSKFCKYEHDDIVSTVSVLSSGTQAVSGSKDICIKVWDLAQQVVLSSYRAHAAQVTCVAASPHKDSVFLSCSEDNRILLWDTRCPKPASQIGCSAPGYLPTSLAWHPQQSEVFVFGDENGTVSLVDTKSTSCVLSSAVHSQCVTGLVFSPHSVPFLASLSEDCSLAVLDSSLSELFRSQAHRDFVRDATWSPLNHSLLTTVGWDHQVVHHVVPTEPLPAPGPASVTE

SMILES | IC50 [µM]
N#Cc1cccc(CN2CCN(CC(O)CN3CCc4ccccc4C3)C2=O)n1 (centres unmarked) [Example 36, 6-((3-(3-(3,4-Dihydroisoquinolin-2(1H)-yl)-2-hydroxypropyl)-2-oxoimidazolidin-1-yl)methyl)picolinonitrile] | 0.59
Cc1cc(CN2CCN(CC(O)CN3CCc4ccccc4C3)C2=O)ccc1C#N (centres unmarked) [Example 37] | 0.08
